Measurements: the supplement of paper PMC8728848
This is one part of the list.

Key:
Assay in all cases: glycan array binding signal (z-score within array); higher = stronger binding
Conditions in all cases: glycan notation: IUPAC condensed, linker removed
[1] = target: GlcNAc(b1-3)Man
Method in brief: (§1)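 Negative Z-scores can be read as non-binding. The Z-score is calculated within each array and then averaged across arrays of one protein sequence at different concentrations or buffers and across linkers. Arrays, 3228 in all, were curated from the Consortium for Functional Glycomics database and kept only where the protein sequence was available.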

[2] = target: GlcNAc(b1-3)[GlcNAc(b1-4)][GlcNAc(b1-6)]GlcNAc
Method in brief: as §1

[3] = target: GlcNAc(b1-3)[GlcNAc(b1-6)]Gal(b1-4)GlcNAc
Method in brief: as §1

[4] = target: GlcNAc(b1-3)[GlcNAc(b1-6)]GalNAc
Method in brief: as §1

[5] = target: GlcNAc(b1-4)Gal(b1-4)GlcNAc
Method in brief: as §1

[6] = target: GlcNAc(b1-4)GlcNAc
Method in brief: as §1

[7] = target: GlcNAc(b1-4)GlcNAc(b1-4)GlcNAc
Method in brief: as §1

[8] = target: GlcNAc(b1-4)GlcNAc(b1-4)GlcNAc(b1-4)GlcNAc(b1-4)GlcNAc
Method in brief: as §1

[9] = target: GlcNAc(b1-4)GlcNAc(b1-4)GlcNAc(b1-4)GlcNAc(b1-4)GlcNAc(b1-4)GlcNAc
Method in brief: as §1

[10] = target: GlcNAc(b1-4)[GlcNAc(b1-6)]GalNAc
Method in brief: as §1

[11] = target: GlcNAc(b1-6)Gal(b1-4)GlcNAc
Method in brief: as §1

[12] = target: GlcNAc(b1-6)GalNAc
Method in brief: as §1

[13] = target: GlcNAc6S(b1-3)Gal(b1-4)GlcNAc
Method in brief: as §1

[14] = target: Kdn(a2-3)Gal(b1-3)GalNAc
Method in brief: as §1

[15] = target: Kdn(a2-3)Gal(b1-3)GlcNAc
Method in brief: as §1

[16] = target: Kdn(a2-3)Gal(b1-4)Glc
Method in brief: as §1

[17] = target: Kdn(a2-3)Gal(b1-4)GlcNAc
Method in brief: as §1

[18] = target: Kdn(a2-3)Gal(b1-4)[Fuc(a1-3)]GlcNAc
Method in brief: as §1

[19] = target: Kdn(a2-6)Gal(b1-4)GlcNAc
Method in brief: as §1

[20] = target: Man(a1-2)Man(a1-2)Man(a1-3)Man
Method in brief: as §1

[21] = target: Man(a1-2)Man(a1-2)Man(a1-6)[Man(a1-3)]Man
Method in brief: as §1

[22] = target: Man(a1-2)Man(a1-3)Man
Method in brief: as §1

[23] = target: Man(a1-2)Man(a1-3)[Man(a1-2)Man(a1-6)]Man
Method in brief: as §1

[24] = target: Man(a1-2)Man(a1-3)[Man(a1-2)Man(a1-6)]Man(a1-6)[Man(a1-2)Man(a1-2)Man(a1-3)]Man
Method in brief: as §1

[25] = target: Man(a1-2)Man(a1-3)[Man(a1-2)Man(a1-6)]Man(a1-6)[Man(a1-2)Man(a1-2)Man(a1-3)]Man(b1-4)GlcNAc(b1-4)GlcNAc
Method in brief: as §1

[26] = target: Man(a1-2)Man(a1-3)[Man(a1-6)]Man(a1-6)[Man(a1-2)Man(a1-3)]Man(b1-4)GlcNAc(b1-4)GlcNAc
Method in brief: as §1

[27] = target: Man(a1-2)Man(a1-6)[Man(a1-3)]Man(a1-6)[Man(a1-2)Man(a1-2)Man(a1-3)]Man
Method in brief: as §1

[28] = target: Man(a1-2)Man(a1-6)[Man(a1-3)]Man(a1-6)[Man(a1-2)Man(a1-2)Man(a1-3)]Man(b1-4)GlcNAc(b1-4)GlcNAc
Method in brief: as §1

[29] = target: Man(a1-3)[Man(a1-6)]Man
Method in brief: as §1

[30] = target: Man(a1-3)[Man(a1-6)]Man(a1-6)[Man(a1-2)Man(a1-3)]Man(b1-4)GlcNAc(b1-4)GlcNAc
Method in brief: as §1

[31] = target: Man(a1-3)[Man(a1-6)]Man(a1-6)[Man(a1-3)]Man
Method in brief: as §1

[32] = target: Man(a1-3)[Man(a1-6)]Man(a1-6)[Man(a1-3)]Man(b1-4)GlcNAc(b1-4)GlcNAc
Method in brief: as §1

[33] = target: Man(a1-3)[Man(a1-6)]Man(b1-4)GlcNAc(b1-4)GlcNAc
Method in brief: as §1

[34] = target: Man(a1-3)[Man(a1-6)]Man(b1-4)GlcNAc(b1-4)[Fuc(a1-6)]GlcNAc
Method in brief: as §1

[35] = target: Man(a1-6)Man
Method in brief: as §1

[36] = target: Man(b1-4)GlcNAc
Method in brief: as §1

[37] = target: MurNAc(b1-4)GlcNAc
Method in brief: as §1

[38] = target: Neu5Ac(a2-3)Gal
Method in brief: as §1

B1: Tamarinin (protein)
chain: CDDSARAGNIVVYWGQGGSDNSEGSLKEACKSGHYNMIVLQQLIVYDDGRDPDLNLGAHCSDCTKLEEQIKYCQNKDIKILLQIGQVVPTQEDVKDVTKNLSEYLLKNFFSGKSGPLGEVYLNGIDIASVPEGNNLKFDELVEALNDSSTERRIYLSASPLCVYPDYYLNKAIQTEKLDFLFVQFFYQNPCIYTEGNPENLFEAMKTWTKNVPESMIFMALPATPNLDGYIPPRVLNKEILPAVSEASNFAGVMIFDRYFDRFRKYSSKIK
[1]
  glycan array binding signal (z-score): 0.095
[2]
  glycan array binding signal (z-score): -0.144
[3]
  glycan array binding signal (z-score): -0.549
[4]
  glycan array binding signal (z-score): -0.175
[5]
  glycan array binding signal (z-score): -0.247
[6]
  glycan array binding signal (z-score): -0.047
[7]
  glycan array binding signal (z-score): 0.61
[8]
  glycan array binding signal (z-score): 0.015
[9]
  glycan array binding signal (z-score): 0.114
[10]
  glycan array binding signal (z-score): -0.392
[11]
  glycan array binding signal (z-score): -0.474
[12]
  glycan array binding signal (z-score): 0.307
[13]
  glycan array binding signal (z-score): -0.331
[14]
  glycan array binding signal (z-score): -0.07
[15]
  glycan array binding signal (z-score): -0.357
[16]
  glycan array binding signal (z-score): 0.233
[17]
  glycan array binding signal (z-score): -0.382
[18]
  glycan array binding signal (z-score): -0.027
[19]
  glycan array binding signal (z-score): -0.441
[20]
  glycan array binding signal (z-score): 0.086
[21]
  glycan array binding signal (z-score): 14.1
[22]
  glycan array binding signal (z-score): 0.032
[23]
  glycan array binding signal (z-score): -0.253
[24]
  glycan array binding signal (z-score): 0.539
[25]
  glycan array binding signal (z-score): -0.478
[26]
  glycan array binding signal (z-score): -0.495
[27]
  glycan array binding signal (z-score): -0.298
[28]
  glycan array binding signal (z-score): 0.144
[29]
  glycan array binding signal (z-score): 0.04
[30]
  glycan array binding signal (z-score): -0.295
[31]
  glycan array binding signal (z-score): 0.27
[32]
  glycan array binding signal (z-score): -0.186
[33]
  glycan array binding signal (z-score): -0.38
[34]
  glycan array binding signal (z-score): 0.156
[35]
  glycan array binding signal (z-score): 0.096
[36]
  glycan array binding signal (z-score): -0.404
[37]
  glycan array binding signal (z-score): -0.096
[38]
  glycan array binding signal (z-score): -0.207
